PubChem BioAssay AID1671194 (National Center for Advancing Translational Sciences (NCATS), 2021)
Hit rate of the full screen: of about 140,000 compounds, about 240 (0.17%) were called active. This list was built around the results that the source calls inconclusive (neither active nor inactive); the mix of calls is not that of the screen. Calls come from the whole dose curve; as a rule, active = well fitted inhibition curve with a large enough effect; inconclusive = small, poorly fitted or top-dose-only effect; inactive = no such curve, though single readings can be large or run the other way. Potencies beside an inconclusive call are fits to weak or partial responses and may not hold up.
Potency is the fitted concentration of half-maximal effect; tags give direction and shape of the fitted curve.

Experiment: Primary qHTS assay for inhibitors of alpha-synuclein gene (SNCA) expression; note: nearly all actives have a fitted effect of over 45% in size
Conditions: HEK-293 SNCA-luciferase knock-in, luminescence, 24 h; series mostly up to 57.2 µM
In the case of `CC(=O)N1c2ccc(S(=O)(=O)NCCC(=O)N(C)Cc3ccccc3)cc2CC1C` (centres undefined), the Potency is reported as inconclusive: 7.08 µM [inhibitor, single point]. For `Cc1noc(-c2ccn3c(CNC(=O)CCC4CCCC4)nnc3c2)n1`, the Potency was “inactive”. With `Cc1cc(N2CCN(C)CC2)nc2ccc(NC(=O)Nc3cccc(Cl)c3)cc12` the Potency was inconclusive: 39.8 µM [inhibitor, single point]. With `CCOc1ccc(Nc2c(S(=O)(=O)c3ccc(Cl)cc3)cnc3ccc(OCC)cc23)cc1` the Potency was inconclusive: 14.1 µM [inhibitor, partial curve]. With `COc1ccc(-c2noc([C@@H]3C[C@H](NCc4ccccn4)CN3C)n2)cc1` the Potency was “inactive”. In the case of `CCc1noc(-c2cccn3c(CNC(=O)c4cccc(OC)c4)nnc23)n1`, the Potency is reported as inconclusive: 3.55 µM [inhibitor, partial curve, poor fit]. In the case of `COc1ccc2[nH]c3c(c2c1)CCN(C)C31CCN(C(=O)COc2ccc(F)cc2)CC1`, the Potency is reported as “inactive”. In the case of `COc1cccc(Nc2cc3c(cn2)CN(C(C)=O)CCN3)c1`, the Potency is reported as inconclusive: 12.6 µM [inhibitor, partial curve, poor fit]. In the case of `CC1(COc2cccnc2)COc2ccc(C(=O)NCC3CCOCC3)cc2N1` (centres undefined), the Potency is reported as “inactive”. With `O=C(OCc1ccccc1)N1CCOCC12CCN(Cc1ccc(O)cc1)CC2` the Potency was “inactive”. With `O=C(c1ccc(Cl)cc1)N1CCC2(CC1)C(=O)NCN2c1ccccc1` the Potency was “inactive”. In the case of `Cc1cc(CN(C)Cc2cn(-c3cccc(F)c3)nc2-c2ccc(C)o2)n[nH]1`, the Potency is reported as “inactive”. With `CC(=O)c1ccc(NC(=O)c2noc3c2CSc2ccccc2-3)cc1` the Potency was inconclusive: 3.98 µM [inhibitor, single point]. In the case of `COc1ccc(CCNC(=O)c2cnn(-c3cccc(C)c3)c2C2CCN(C(=O)OC(C)(C)C)CC2)cc1OC`, the Potency is reported as inconclusive: 7.94 µM [inhibitor, full curve, poor fit]. In the case of `Cc1ccc(-c2cc(N3CCC(CNC(=O)c4n[nH]c5c4CCCC5)CC3)n[nH]2)cc1`, the Potency is reported as inconclusive: 39.8 µM [inhibitor, single point]. With `CCc1cccc(NC(=O)N2CCc3c(c4cc(F)ccc4n3C)C2)c1` the Potency was inconclusive: 39.8 µM [inhibitor, single point]. In the case of `OCC1(CCc2ccccc2)CCCNC1` (centres undefined), the Potency is reported as inconclusive: 39.8 µM [inhibitor, single point]. With `CCc1ccc(CN2CCc3nc(N4CCN(c5ccccc5F)CC4)ncc3C2)cc1` the Potency was inconclusive: 39.8 µM [inhibitor, single point]. In the case of `CCCCOc1cccc(C(=O)Nc2cc(NC(=O)c3ccco3)ccc2OC)c1`, the Potency is reported as inconclusive: 39.8 µM [inhibitor, single point]. In the case of `Cn1nccc1C(=O)N1CCC2(CC1)OC(=O)N(Cc1ccccc1)C2(C)c1cccnc1` (centres undefined), the Potency is reported as “inactive”. For `Cc1ccc(Cl)cc1N1CCN(C(=O)c2c(C)oc3ncnc(N4CCCCC4)c23)CC1`, the Potency was inconclusive: 39.8 µM [inhibitor, single point]. In the case of `CC(c1ccccc1)n1cc2c(c1-c1ccccc1Br)c(=O)n(C)c(=O)n2C` (centres undefined), the Potency is reported as inconclusive: 0.158 µM [inhibitor, partial curve, poor fit]. With `COc1ccc2[nH]c(C[C@@H]3C[C@@H](C(C)C)[C@H](CNC(=O)c4cccnc4)C=C3C)nc2n1` the Potency was inconclusive: 50.1 µM [inhibitor, single point]. With `C#CCNC(=O)[C@@H]1Cc2cn(Cc3cccnc3)c3cccc(c23)[C@H](CC(C)C)N1` the Potency was inconclusive: 8.91 µM [inhibitor, full curve, poor fit]. In the case of `CCN(CC)Cc1nc(C2(O)CCN(C3CCC3)CC2)cs1`, the Potency is reported as inconclusive: 20 µM [inhibitor, partial curve, poor fit]. With `O=C(NC[C@H]1Cn2c(-c3ccc4c(c3)OCCO4)cnc2CO1)Nc1ccccc1` the Potency was “inactive”. In the case of `O=C(NCC1Cn2cccc2CN1Cc1ccccc1)c1ccsc1` (centres undefined), the Potency is reported as “inactive”. In the case of `O=C(NCCc1ccccc1)C1CCN(Cc2cc3ccccc3n2Cc2cccc(Cl)c2)CC1`, the Potency is reported as inconclusive: 39.8 µM [inhibitor, single point]. With `COc1cc(OC)c(N(C)C(=O)c2cn(C3CCCC3)c(=O)c3c2c2ccccc2n3C)cc1Cl` the Potency was inconclusive: 39.8 µM [inhibitor, single point]. In the case of `Cc1cnc(C(=O)N[C@@H]2CCC[C@@H]2C(=O)NCCc2cccs2)cn1`, the Potency is reported as inconclusive: 3.16 µM [inhibitor, partial curve, poor fit]. With `O=C1OCC2(CCN(Cc3ccccc3O)C2)N1Cc1ccccc1` (centres undefined) the Potency was inconclusive: 56.2 µM [inhibitor, single point]. In the case of `Cc1cccc(-c2ccccc2C=O)c1`, the Potency is reported as “inactive”. In the case of `COCc1nnc(NC(=O)CC[C@H]2NC(=O)c3ccccc3NC2=O)s1`, the Potency is reported as inconclusive: 39.8 µM [inhibitor, single point]. For `Cc1nn(-c2ccc(C(F)(F)F)cc2)c(C)c1[C@@H]1C=C[C@@H](NCc2ccc(N(C)C)cc2)C1`, the Potency was inconclusive: 39.8 µM [inhibitor, single point]. With `CN(C)c1ncc2c(n1)C(C)(C(=O)Nc1ccccc1F)CCC2` (centres undefined) the Potency was inconclusive: 17.8 µM [inhibitor, partial curve, poor fit]. For `O=C(Cc1cccnc1)N1CCC2(CC1)CC(CCOc1ccc(F)cc1)CCO2` (centres undefined), the Potency was inconclusive: 20 µM [inhibitor, partial curve]. In the case of `O=C(NCCC1=CCCCC1)C1CCN(C(=O)c2ncn3c2COC(c2ccc(F)cc2)C3)CC1` (centres undefined), the Potency is reported as inconclusive: 28.2 µM [inhibitor, partial curve, poor fit]. With `CCn1c(-c2nonc2N)nc2cnc(Oc3cccc(NC(=O)c4ccc(OCCN5CCOCC5)cc4)c3)cc21` the Potency was inconclusive: 42.9 µM [inhibitor, single point]. In the case of `Cc1ccc(C2NC(=O)N(CC(=O)NC(C)(C)C)C3=C2C(=O)OC3)cc1` (centres undefined), the Potency is reported as inconclusive: 12.6 µM [inhibitor, partial curve, poor fit]. For `FC(F)(F)c1ccccc1CN1CCC2(CC1)CC(c1ccccc1)=NO2`, the Potency was “inactive”. In the case of `Cc1nc(-c2ccccc2)n(Cc2nc(-c3ccc(OC(C)C)cc3)oc2C)c(=O)c1CCO`, the Potency is reported as “inactive”. For `CCN1C(=O)CCc2cc(NC(=O)c3cncc(Br)c3)ccc21`, the Potency was inconclusive: 2.51 µM [inhibitor, single point]. With `CCN(c1ccccc1)S(=O)(=O)c1ccc(-c2cc(C)no2)s1` the Potency was inconclusive: 7.08 µM [inhibitor, single point]. In the case of `COCCCNC(=O)CNC(=O)c1ccc(-c2cccc(C(F)(F)F)c2)cc1`, the Potency is reported as “inactive”. For `O=C(NC1CCCN(Cc2ccc(-c3cncnc3)cc2)C1)c1ccccn1` (centres undefined), the Potency was “inactive”. In the case of `Cc1ccc(C(=O)COC(=O)C(Cc2c[nH]c3ccccc23)NC(=O)c2ccc(C(C)(C)C)cc2)cc1` (centres undefined), the Potency is reported as inconclusive: 7.94 µM [inhibitor, single point]. With `O=C(NCc1cccs1)c1ccc2nnc(-c3cccc(C(F)(F)F)c3)n2c1` the Potency was inconclusive: 2.24 µM [inhibitor, partial curve, poor fit]. For `CCC1CCCCN1S(=O)(=O)c1cc(C(=O)Nc2ccc(C)c(F)c2)ccc1F` (centres undefined), the Potency was inconclusive: 22.4 µM [inhibitor, single point]. For `Cc1ccc(CNC(=O)c2cnn(-c3cccc(C)c3)c2C2CCN(C(=O)OC(C)(C)C)CC2)cc1`, the Potency was inconclusive: 11.2 µM [inhibitor, partial curve]. For `Cc1ccc(-c2nnc(C3CN(C(=O)c4ccc(C)s4)CC34CCOCC4)o2)cc1` (centres undefined), the Potency was “inactive”. With `COC(=O)CNC(=O)c1nc(-c2cccnc2)c2ccccn12` the Potency was “inactive”. In the case of `CC(C)N1C(=O)C(CC(=O)N(C)Cc2cccnc2)=C2CCCCC21` (centres undefined), the Potency is reported as inconclusive: 4.47 µM [inhibitor, full curve, poor fit]. For `CN(Cc1ccccc1)c1ccc2nnc(-c3ccccn3)n2n1`, the Potency was inconclusive: 7.08 µM [inhibitor, partial curve, poor fit]. In the case of `Cc1cc(C)cc(-c2ccc(CN3CCCC3C(=O)N3CCCC(C)C3)cc2)c1` (centres undefined), the Potency is reported as “inactive”. With `COc1ccccc1CNC(=O)C[C@@H]1c2nc(-c3cccnc3)sc2C[C@@H]2[C@](C)(CO)[C@H](O)CC[C@]21C` the Potency was “inactive”. In the case of `CNC(=O)CNC(=O)N1CCC(=O)N(C)c2ccccc2C(OC)C1` (centres undefined), the Potency is reported as “inactive”. With `COc1cccc(CN2CCCCC2c2nc(CCOCC3CCOCC3)no2)c1` (centres undefined) the Potency was inconclusive: 39.8 µM [inhibitor, single point]. In the case of `COc1cccc(CNC(=O)c2ccc3nnc(-c4ccoc4)n3c2)c1`, the Potency is reported as inconclusive: 5.62 µM [inhibitor, full curve, poor fit]. For `Cc1ccc(Cn2cc(C(=O)c3ccc4c(c3)OCO4)c(=O)c3cc(C)ccc32)cc1`, the Potency was inconclusive: 0.794 µM [inhibitor, full curve, poor fit]. For `NCCc1nc2cccnc2n1-c1ccccc1`, the Potency was “inactive”. With `COCCNC(=O)CSc1nc(-c2ccccc2)[nH]c1-c1ccc(OC)cc1` the Potency was inconclusive: 31.6 µM [inhibitor, single point]. In the case of `COc1ccc(NC(=O)N2CCc3c(C(=O)Nc4ccccc4)cccc32)cc1`, the Potency is reported as inconclusive: 1.41 µM [inhibitor, full curve, poor fit]. For `CCOC(=O)C1=C(CN2CCN(c3ccc(OC)cc3)CC2)NC(=O)NC1c1ccc(Cl)cc1` (centres undefined), the Potency was inconclusive: 17.8 µM [inhibitor, single point]. For `COc1ccc(NC(=O)CN2C(=O)NC(c3ccc(Cl)cc3)C3=C2COC3=O)c(OC)c1` (centres undefined), the Potency was inconclusive: 8.91 µM [inhibitor, partial curve, poor fit].
